Results reported in the supplement of paper PMC11417369.
± gives the standard deviation of the averaged measurements. Some of the results follow.

System: PfAP2-I AP2 domain 3 (GST-tagged)
Assay: gcPBM binding intensity (ln(normalized median fluorescence intensity)); higher = stronger DNA binding
Method in brief: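 In this array assay, P. falciparum DNA-binding domains with a GST tag, expressed in E. coli, were applied for 1 h to primer-extended double-stranded 36-bp intergenic genomic probes and negative controls on an Agilent 4 × 180k array. Bound protein was visualised with Alexa488 anti-GST antibody at 488 nm. Binding intensity is the highest Masliner-normalised natural-log median intensity across replicate spots of either probe orientation.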

Sequence	gcPBM binding intensity (ln)
TATTAAAAGGTGAGTACACACATATCTGAGTATATA [CACACA_site5192]	7.8 ± 0.14
TACAATATAATTTAATGTACATGTGAATATATATAT [XGTACX_site4675]	8.94 ± 0.14
TTGTGCTAAACAAAAAAAAATATATATAAAAAAATA [XGTACX_negctrl_site388]	8.98 ± 0.28
TAAAACTTAATGTTTTGTACATATTCTTCTTTATTT [XGTACX_site4271]	7.36 ± 0.61
AATCAAAAAGGAACCATAATATTACAACTATATATA [CACACA_negctrl_site381]	7.48 ± 0.55
ATTATTATAGATAAAACACACAATTTTGTTTTCACA [CACACA_site7792]	7.65 ± 0.59
TTAACAAAGAAACACACACACACACCCAAAAAAAAA [CACACA_site516]	8.43 ± 0.21
GCCATAAAGATATATACACACATAAAAAAAAGTTAT [CACACA_site6674]	7.79 ± 0.59
AAAAAAAAAATTAAATGTACATATATAATATATATA [XGTACX_site7245]	8.19 ± 0.56
TTATATTTTATTATGTGTACGTATATAATATAATAT [XGTACX_site6230]	8.18 ± 0.042
AAACAATTATTATATTGTACATATATTACATTATTA [XGTACX_site1089]	7.45 ± 0.52
ACATGCAAGAAGAAATGTACTTAACATCTATATAGA [XGTACX_site7338]	7.7 ± 0.53
ACTAAATAAATAAATATAATATATAAATATGTATGT [TGCATGCA_negctrl_site583]	7.47 ± 0.47
GTATATATGTTTTATACACACATTAAAGGAAATATA [CACACA_site984]	7.8 ± 0.57
CACAAACAGACAAACACACACACACGGACATACATA [CACACA_site6350]	8 ± 0.41
TATAATATATAAAAATGTACACATAAATATAAGTAG [XGTACX_site665]	8.23 ± 0.11
TTTTATACATATTTTACACACTAAAATATACAGATA [CACACA_site4333]	7.91 ± 0.59
TTACATATTCATAAAAGTACATAATTATAAAAGGTA [XGTACX_site906]	7.94 ± 0.31
AAAATTAATTTATTTACACACAATATTAAAATATTT [CACACA_site7512]	7.77 ± 0.4
TATATATGGAAAAGAGTCAAAAAGAAAAAAGAAAAA [CACACA_negctrl_site1374]	7.79 ± 0.69
TATGAAATATTTATACACAGAACTTCATAATTTTCA [TGCATGCA_negctrl_site509]	7.42 ± 0.47
TTTTTGTATTCTTCTTCTTCCAGACTACATTATGTC [XGTACX_negctrl_site235]	7.74 ± 0.66

Sequence	gcPBM binding intensity (ln)
ATATATTTAAAATTGACACACATTTAATGACATTTT [CACACA_site3112]	7.61 ± 0.61
TTTTTATTTTTTGAAACACACACAAAAAAAATGATA [CACACA_site8564]	7.93 ± 0.23
TAAGGATATATATATTCACACACACCGGGAAATATA [CACACA_site8020]	7.72 ± 0.69
AAACAAATATATATATGTACTTATAAAAAAAAAAAT [XGTACX_site2211]	7.66 ± 0.46
CATTTTTTGCTTTCAACACACATACAATATATATAA [CACACA_site6127]	8.15 ± 0.57
CTTTATTTTTTATACACACACAATATGTATATATAT [CACACA_site3550]	8.2 ± 0.54
AAGGATCACGCACAAACACACATATTTATATTTATA [CACACA_site6405]	8.13 ± 0.59
ATTAAATTAAAATAATGTACTTAATACTTTTGCTTA [XGTACX_site8404]	7.39 ± 0.39
AACAATTTTTAAAGGTGTACAATATGTATATAAGAA [XGTACX_site254]	8.54 ± 0.29
AATTTTGAGATGTGGTGTACACAAAATTAGTTAGAC [XGTACX_site7033]	8.94 ± 0.35
TCAACGATCACTCGGTGTACTATAAATGAGAGAATT [XGTACX_site1820]	7.97 ± 0.7
ATATATATATATAAAGGTACACATTTATTAAATATA [XGTACX_site7102]	9.23 ± 0.67
TATTTGCAATATTATACACACATTAGATATTGCAAA [CACACA_site7565]	8.3 ± 0.43
TAATATATATAACATATACACACGTTCATATATATA [CACACA_site462]	7.89 ± 0.46
AACAAATTAATTCTAGTGCAGGACGTATTTGTGTAC [GTGCAC_site9907]	9.12 ± 0.7
AAAAAAAAAAAAAAATGTACATATATAATATTTATA [XGTACX_site5117]	8.13 ± 0.39
TACAAAATGTTATATCAATATAGATAAAAAAATGAA [XGTACX_negctrl_site285]	7.71 ± 0.45
ATATATATAAATATATGTACATAAATATATTTGTAA [XGTACX_site6715]	7.99 ± 0.46
AATTAAACTTTGTTTTTGTTTTTTTTTTTTATATTT [CACACA_negctrl_site1316]	7.3 ± 0.48
TCTTTAACAAGTTAAACACACATACCTATATACATA [CACACA_site7237]	7.73 ± 0.64
TGGTGATATACGAAATGTACGCAAATCACAAAATAA [XGTACX_site8836]	8.09 ± 0.65
AAATAAAAATTAAAAAAATAGAAACGAATTGAATGC [TGCATGCA_negctrl_site365]	7.83 ± 0.64
